Data as given in ChEMBL document CHEMBL4888484, “Replenishing the malaria drug discovery pipeline: Screening and hit evaluation of the MMV Hit Generation Library 1 (HGL1) against asexual blood stage Plasmodium falciparum ,using a nano luciferase reporter read-out” (2022).
Among all 150,000 compounds or so, about 540 (0.36%) showed an effect of 50% or more. The list shows a part of the results.

Each compound was assayed on Plasmodium falciparum (assay: Primary screen in NF54 nanoGlo assay, in single point, at 2uM, 72h; a lower Z score goes with more inhibition). Settings: timepoint 72 hour.
Type: functional, Erythrocyte

Row | Structure (SMILES) | % Inhibition [%] | Z score
1 | Cc1nc(-c2cc(S(=O)(=O)Nc3ccc(Cl)cc3)c(C)s2)cs1 | -1 | 0.09
2 | O=S(=O)(Cc1ccccc1)N1CCC[C@H]1c1n[nH]c2c1COCC2 | -6 | 1.1
3 | Cc1cc(=O)n2nc(-c3ccccc3Cl)nc2n1CC(=O)N1CCCCC1 | -3 | 0.34
4 | O=C(Nc1cc(F)cc(F)c1)OCC(F)(F)F | 26 | -3.55
5 | CCN(CC)Cc1cnc2c(C(=O)N(C)C3CCOCC3)cnn2c1 | -14 | 2.56
6 | CC(C)CS(=O)(=O)NC(=O)C1CC1C (stereo not drawn) | -2 | 0.27
7 | O=C(NCCn1nc(-c2ccco2)n(C2CC2)c1=O)c1cccc(-n2cnnn2)c1 | -1 | 0.15
8 | COC1(CC(=O)N[C@@H](Cc2ccccc2)C(=O)N(C)c2ccccc2)CCC1 | 0 | -0.02
9 | CN(Cc1cccs1)C(=O)CN1CCc2cncnc2C1 | -6 | 0.95
10 | COc1ccc(NC2CCCC(N3C(=O)c4ccccc4C3=O)C2)c(OC)c1 (stereo not drawn) | -9 | 1.01
11 | CCC(C)[C@H](NC(=O)NCc1cccnc1)C(=O)OC (stereo partly drawn) | -2 | 0.3
12 | O=S(=O)(c1ccccc1Cl)N1CCc2oncc2C1 | -11 | 1.79
13 | CC(=O)Nc1nc(-c2c(F)c(F)c(F)c(F)c2-c2ccccc2)cs1 | -10 | 1.85
14 | Cn1cnnc1C1CCN(CC(Cc2ccccc2)Cc2ccccc2)CC1 | -2 | 0.3
15 | C=CCn1c(=O)c2sc(N(CC)CC)nc2n(CC(=O)Nc2cccc(F)c2)c1=O | -28 | 2.5
16 | CN(CCC[C@H]1CCCO1)c1ccnc(C(F)(F)F)n1 | 1 | -0.13
17 | Cc1cccc(-c2nocc2CCC(=O)NC2CC2)c1 | -7 | 0.91
18 | CC[C@]1(O)CCCN(C(=O)c2ccncc2C)C1 | 2 | -0.36
19 | CCN(CC(F)(F)F)C(=O)Nc1ccc(F)c(F)c1 | 0 | -0.02
20 | Cc1cc(OCC(N)=O)ccc1Br | -12 | 1.61
21 | CCOC(=O)C1=NN=C2C(=O)N(c3ccc(C)cc3)C(=O)[C@@H]12 | -14 | 1.46

Row | Structure (SMILES) | % Inhibition [%] | Z score
22 | Cc1cc(NC(=O)c2cn([C@H]3CC[C@@H](N)CC3)nn2)cc2sc(N)nc12 | 12 | -2.46
23 | Cc1ccccc1N1CCN(C(=O)CC[C@@H]2CN(Cc3ccccn3)CC[C@@H]2N2CCOCC2)CC1 | 2 | -0.27
24 | O=C(c1cc(F)ccc1F)N1CCC[C@H](c2nc(C3CCOCC3)no2)C1 | -3 | 0.42
25 | O=C(CCc1ccccc1)N1CCC[C@H](Oc2cccnn2)C1 | -10 | 1.18
26 | O=C(NC1CC(C(F)(F)F)C1)c1cnnc2ccccc12 (stereo not drawn) | -5 | 0.56
27 | Cc1cc(-c2noc(COc3cc(C)c(Cl)c(C)c3)n2)c2ccccc2n1 | -13 | 1.96
28 | CN1CC2(C[C@H]1c1noc(-c3ccccn3)n1)CN(C(=O)C1CCOCC1)C2 | -10 | 1.62
29 | COCC1(S(=O)(=O)N2CC3CCCC3C2)CC1 (stereo not drawn) | -16 | 1.83
30 | Cc1[nH]nc(CCC(=O)N[C@H](c2cnn(C)c2)C2CC(O)C2)c1C (stereo partly drawn) | -15 | 1.37
31 | Cc1nc(NC(=O)CCNS(=O)(=O)c2ccc(Cl)cc2)sc1-c1ccccn1 | 0 | 0.02
32 | Cc1nnc2c(=O)n(CC(=O)N3CCCCCC3)c3cccnc3n12 | -5 | 0.7
33 | CCCCC(=O)Nc1cc(C(=O)O)ccc1N(CC)CCN(C)C | -8 | 1.24
34 | Cc1nnc(CCN2C[C@@](C)(c3ccccc3)CCC2=O)[nH]1 | 31 | -3.99
35 | CC(C)(C)OC(=O)N[C@H](C(=O)O)C1CCCCC1 | -8 | 1.37
36 | O=C(COC1CCCCC1)Nc1cccc2oc(C(F)(F)F)nc12 | 25 | -2.81
37 | Cc1ccc(-c2c(C3c4ccccc4C(=O)N3CC3CCCO3)c3ccccc3n2C)cc1 (stereo not drawn) | 2 | -0.21
38 | COCCN(CC(=O)N(C)C)S(=O)(=O)C[C@H]1CCC[C@@H]1C | -9 | 1.58
39 | CN(C)c1ncc(Br)c2c1CN(C(=O)CO)CC2 | -6 | 0.68
40 | CN(C)S(=O)(=O)c1ccc2c(c1)nnn2CCC(=O)N1CCN(c2ncccn2)CC1 | 10 | -1.85
41 | CCOc1ccc(C)cc1S(=O)(=O)N1CC=C[C@@H]1CC | 2 | -0.41
42 | CCOC(=O)N1CCN(C(=O)c2cc(O)c(OCc3ccccc3)cn2)CC1 | 0 | 0.06

Row | Structure (SMILES) | % Inhibition [%] | Z score
43 | Cc1ccc(CC(=O)Nc2ccc(N3C(=O)CCC3=O)c(C)c2)s1 | -7 | 0.94
44 | CN(C[C@H](O)c1cccnc1)c1nccn2nnnc12 | -4 | 0.67
45 | CC1(CC(=O)N2CCC[C@H]2C(N)=O)CCCCC1 | 1 | -0.22
46 | c1ccc(-c2nnc(C3CCNCC3)s2)cc1 | -11 | 1.51
47 | Cc1ccc(C(=O)N2CCc3c(c4ccccc4n3Cc3ccccc3)C2)cc1 | -4 | 0.48
48 | Cc1[nH]c(=O)[nH]c(=O)c1CN1CCO[C@@H](CCCc2ccccc2)C1 | 4 | -0.86
49 | COCCCn1c(=O)c2ccccc2n(CC(=O)N2CCN(c3ccccc3F)CC2)c1=O | 5 | -0.76
50 | Cc1cnc(CCNC(=O)C2CCC(=O)C(C)C2)nc1 (stereo not drawn) | -6 | 0.98
51 | COc1ccccc1NC(=O)Nc1cc(C)c2nc(NS(=O)(=O)c3ccc(C)cc3)sc2c1 | -13 | 2.06
52 | Cc1c(C(=O)N2CCC3(CC2)COC(=O)O3)n(C)c2ccc(F)cc12 | -14 | 1.38
53 | CC(=O)Nc1ccc(OC2CCCCC2O)cc1 (stereo not drawn) | -12 | 1.2
54 | CC[C@@H](C(=O)N1CCCN(c2ccc(NC(=O)c3ccc(C)cc3)cc2C(=O)N2CCCCC2)CC1)c1ccccc1 | -16 | 1.89
55 | CC(=O)N[C@@H]1CC[C@H]2CCOc3ccccc3C(=O)N3CCN(Cc4cccnc4)C[C@H]3C(=O)NC[C@H]1O2 | -2 | 0.38
56 | OCC[C@H]1CN(Cc2nc3c(s2)CCCC3)CCN1Cc1ccsc1 | -2 | 0.37
57 | CC(C)(CO)CNC(=O)c1cn(Cc2cccc3ccccc23)nn1 | -10 | 1.32
58 | COc1cc(CN2CCC(N(c3ccc(OC)c(OC)c3)S(=O)(=O)c3ccc(F)cc3)CC2)cc(OC)c1 | -2 | 0.24
59 | O=C(NCc1cccnc1)c1nn[nH]c1Nc1ccccc1F | 2 | -0.32
60 | CC1CCC(C)N1C(=O)C(=O)Nc1cncc(Br)c1 (stereo not drawn) | -12 | 1.37
61 | CC1CCN(Cc2ccc(-c3ncnn3C(C)(C)C)o2)CC1 | -6 | 1.14
62 | Cc1ccc(C(=O)N2CCN3[C@@H](C2)CN(C(=O)c2ccc(Cl)cc2)C[C@@]3(C)CO)cc1 | -1 | 0.18
63 | COc1ccc2ncn(C[C@@H](CO)C(C)C)c(=O)c2c1 | 0 | 0.01

Row | Structure (SMILES) | % Inhibition [%] | Z score
64 | Cc1cnc(CN2CCNC(=O)[C@@H]2CC(C)C)s1 | 3 | -0.49
65 | C#CC[C@H](NC(=O)c1ccc(C)s1)C(N)=O | -2 | 0.35
66 | O=C(Cn1cncn1)N1CCC[C@H](Cc2nc(-c3ccsc3)no2)C1 | 27 | -3.52
67 | O=C1O[C@H](C(=O)N2CCc3ccccc32)Cc2ccccc21 | -10 | 1.05
68 | O=C(Nc1ccc2c(c1)cc(C(=O)Nc1ccc(C(F)(F)F)cc1)n2Cc1cccc(F)c1)c1ccccc1Cl | 30 | -4.07
69 | CCCCc1ccnc(NS(=O)(=O)c2sc(C)nc2C)n1 | -6 | 0.74
70 | C[C@@H]1Oc2ccc(NC(=O)CNC(=O)c3cccs3)cc2NC1=O | -14 | 2.71
71 | CCOC(=O)Cc1csc(NC(=O)c2cc(Cl)c3c(c2)OCCCO3)n1 | 0 | 0.09
72 | Cc1cc(N)n(CC(=O)NCCC2=CC[C@H]3C[C@@H]2C3(C)C)n1 | 3 | -0.53
73 | CN(Cc1ccccc1)C(=O)CNC(=O)[C@@]1(C)CC1(Cl)Cl | 10 | -1.82
74 | CC1CC(=O)CCC1C(=O)Nc1ccc2[nH]ccc2c1 (stereo not drawn) | 11 | -1.4
75 | COCCn1c(-c2nc(C(=O)Nc3nccs3)cs2)cc2ccccc21 | 15 | -2.04
76 | N#Cc1ccncc1NCC1(C(N)=O)CCOCC1 | 16 | -1.76
77 | O=C(CN1CCC(O)CC1)N[C@H]1CCCc2ccccc21 | -7 | 1.12
78 | Cc1nc2ccc(Cl)cn2c1CN1CCC[C@](C)(C#N)C1 | -1 | 0.16
79 | Nc1c(S(=O)(=O)c2ccc(Cl)cc2)c2nc3ccccc3nc2n1Cc1ccc(F)cc1 | -2 | 0.21
80 | Cc1cnn(C)c1S(=O)(=O)N1CCC=C(c2cn(C(C)C)nn2)CC1 | -3 | 0.41
81 | CCNC(=O)CONC(=O)CCCc1ccccc1 | -5 | 0.6
82 | Cc1cc(C(=O)NCCc2cccs2)[nH]n1 | -5 | 0.95
83 | CN1CCC[C@@H]1CCNC(=O)c1cccc(-c2nc(C(C)(C)C)n[nH]2)c1 | -11 | 1.79
84 | Cc1cc(C(=O)NCC(=O)NC(C)(C)C)no1 | 37 | -5.05
